Out of some 220,000 compounds screened, about 2,300 (1%) were called active. Inconclusive results, whose numbers are uncertain, are shown with a selection of clear calls. Calls come from the whole dose curve; as a rule, active = well fitted inhibition curve with a large enough effect; inconclusive = small, poorly fitted or top-dose-only effect, or effect the other way; inactive = no such curve, though single readings can be large or run the other way. No potency is given beside an inconclusive call; the fits are too rough.
Target: Neuropeptide S receptor (Homo sapiens) (UniProt Q6W5P4)
Chain of UniProt Q6W5P4 (Q6W5P4 whole entry, looked up): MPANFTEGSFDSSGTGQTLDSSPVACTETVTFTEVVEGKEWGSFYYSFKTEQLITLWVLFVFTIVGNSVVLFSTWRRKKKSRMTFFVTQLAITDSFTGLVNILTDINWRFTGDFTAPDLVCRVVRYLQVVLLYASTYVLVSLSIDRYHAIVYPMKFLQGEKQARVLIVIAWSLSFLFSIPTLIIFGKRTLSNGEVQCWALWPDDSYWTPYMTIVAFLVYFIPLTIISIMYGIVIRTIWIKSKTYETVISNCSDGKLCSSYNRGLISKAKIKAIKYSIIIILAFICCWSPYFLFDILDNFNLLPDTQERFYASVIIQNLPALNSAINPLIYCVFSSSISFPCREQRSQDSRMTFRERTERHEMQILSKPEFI
Test: qHTS Assay for Antagonists of the Neuropeptide S Receptor: cAMP Signal Transduction; note: nearly all actives have a fitted effect of over 50% in size
Details: CHO-NPSR cells, cAMP TR-FRET, antagonist mode; activity change, negative = inhibition: at 38.3 µM (top of the series) unless noted
% is set by controls: 0 for no effect and ±100 for the full control effect; potency is the fitted concentration of half-maximal effect; tags give direction and shape of the fitted curve.

Q: How did the Potency turn out when `O=C(Nc1nc(-c2cccs2)c(C(=O)C(F)(F)F)s1)c1ccco1` was run?
A: active: 10 µM

Q: With `CCC(C)Sc1nnc(-c2c[nH]c3ccccc23)n1CCOC` (stereo unspecified) as the compound, how does the Potency read?
A: inconclusive [activator, partial curve, poor fit]

Q: How did the Potency turn out when `Cc1nn(-c2ccccc2)cc1/C=N/NC(N)=S` was run?
A: inconclusive [activator, single point]

Q: `Cc1sc(NC(=O)c2ccc(Cl)s2)c(C(N)=O)c1C` was tested. Which Potency did it give?
A: inconclusive [inhibitor, partial curve]

Q: With `CN(C)c1ccc(-n2cccc2)cc1` as the compound, how does the Potency read?
A: inconclusive [activator, single point]

Q: How did the Potency turn out when `CCCCOc1ccc(CCC(=O)N/N=C/c2ccco2)cc1` was run?
A: inconclusive [activator, single point]

Q: Which “activity change, negative = inhibition” value does the source give for `Cc1nn(C)cc1CN(C)C(=O)CCc1nnc(CCC2CCCCC2)o1` here?
A: inactive: 5.54%

Q: With `Cc1ccc2cc(C(c3nnnn3C3CCCC3)N3CCN(c4ccc(F)cc4)CC3)c(=O)[nH]c2c1` (stereo unspecified) as the compound, how does the Potency read?
A: inconclusive [inhibitor, single point]

Q: Which Potency does the source give for `CCc1nc(Nc2ccc3c(c2)OCCO3)c2oc3ccccc3c2n1` here?
A: inconclusive [inhibitor, single point]

Q: With `CCCCN(CC)Cc1ccc(CNC(=S)Nc2ccc(C)cc2Cl)o1` as the compound, how does the “activity change, negative = inhibition” value read?
A: inactive: -19.5%

Q: Which Potency does the source give for `COc1ccc(OC)c(NC(=O)c2ccc(-n3cccn3)nc2)c1` here?
A: inconclusive [inhibitor, single point]

Q: `COc1ccccc1N1CCN(CC(=O)NCC2CCCO2)CC1` (stereo unspecified) was tested. Which “activity change, negative = inhibition” value did it give?
A: inactive: 11%

Q: How did the “activity change, negative = inhibition” value turn out when `COc1ccc([N+](=O)[O-])cc1NC(=O)c1ccc(C)o1` was run?
A: inactive: 2.09%

Q: For `Cc1ccc(C(=O)Nc2ccccc2-c2ccccc2)cc1S(=O)(=O)Nc1cccc(C)c1C`, which Potency is on record?
A: inconclusive [inhibitor, single point]

Q: For `CCC(=O)n1nc(NCc2ccccc2OC)nc1NCc1ccccc1OC`, which Potency is on record?
A: inconclusive [inhibitor, single point]

Q: How did the Potency turn out when `COc1ccc(NC(=O)N(C2CCCCC2)C(C)c2ccco2)c(OC)c1` (stereo unspecified) was run?
A: inconclusive [inhibitor, partial curve]

Q: How did the “activity change, negative = inhibition” value turn out when `CSCCC(NS(=O)(=O)c1cccs1)C(=O)NCc1cccs1` (stereo unspecified) was run?
A: inactive: -0.674% [at 46.1 µM]

Q: For `O=C(COC(=O)CCCNC(=O)c1ccc(Cl)cc1)NCc1ccccc1Cl`, which Potency is on record?
A: inconclusive [inhibitor, single point]

Q: For `COc1ccc2[nH]c(=O)c(CN(Cc3ccco3)C(c3nnnn3Cc3ccccc3)C(C)C)cc2c1` (stereo unspecified), which Potency is on record?
A: inconclusive [inhibitor, single point]

Q: Which “activity change, negative = inhibition” value does the source give for `CCN1C(=O)/C(=C2\C=Cc3cc(C)ccc3N2CC)OC1=S` here?
A: inactive: -4.66%

Q: How did the “activity change, negative = inhibition” value turn out when `COc1ccc(NC(=O)C(c2cc3c(cc2[N+](=O)[O-])OCO3)N2CCN(C=O)CC2)cc1` (stereo unspecified) was run?
A: inactive: 12.6%

Q: `COc1cc(NC(=O)C23CC4CC(C2)CC(n2nnc(C)n2)(C4)C3)c(OC)cc1Cl` was tested. Which Potency did it give?
A: inconclusive [inhibitor, single point]

Q: How did the Potency turn out when `N#C/C(=N\Nc1ccc([N+](=O)[O-])cc1)C(N)=S` was run?
A: inconclusive [inhibitor, single point]

Q: Which Potency does the source give for `CC(C)(C)c1csc(Sc2ccc([N+](=O)[O-])cn2)n1` here?
A: inconclusive [activator, single point]

Q: How did the Potency turn out when `COc1cc(-c2nnc(SCC(=O)N(Cc3ccccc3)C(C)(C)C)o2)cc(OC)c1OC` was run?
A: inconclusive [inhibitor, full curve]

Q: How did the Potency turn out when `Cc1cccc(NC(=O)C2(c3ccccc3)CC2(Cl)Cl)c1` (stereo unspecified) was run?
A: inconclusive [inhibitor, partial curve]

Q: Which “activity change, negative = inhibition” value does the source give for `COc1ccccc1/C=N/n1cnnc1` here?
A: inactive: -6.18% [at 46.1 µM]

Q: How did the Potency turn out when `CC(CN1CCOCC1)OC(=O)c1ccc(Br)cc1` (stereo unspecified) was run?
A: inconclusive [inhibitor, full curve, poor fit]

Q: For `O=C1/C(=C/c2cccc3ccccc23)CCCc2ccccc21`, which Potency is on record?
A: inconclusive [inhibitor, single point]

Q: `CCn1c(N2CCN(S(=O)(=O)c3ccc(Cl)cc3)CC2)nc2ccccc21` was tested. Which Potency did it give?
A: inconclusive [inhibitor, single point]

Q: How did the Potency turn out when `O=S(=O)(Nc1cccc2cccnc12)c1ccc(S(=O)(=O)N2CCCC2)cc1` was run?
A: inconclusive [inhibitor, single point]

Q: `N#Cc1ccc(-c2ccc(F)cc2)nc1SCC(=O)Nc1sc2c(c1C#N)CCC2` was tested. Which Potency did it give?
A: inconclusive [inhibitor, single point]

Q: For `O=C1c2ccccc2C(=O)N1CCC(c1ccccc1)c1ccco1` (stereo unspecified), which Potency is on record?
A: inconclusive [inhibitor, single point]

Q: `O=C(Nc1ccc(Cl)cc1)/C(=C/c1cccc(O)c1)c1nc2ccccc2s1` was tested. Which Potency did it give?
A: active: 10 µM

Q: With `Cc1cc(Br)c2nc3c(c(C(=O)O)c2c1)CCCCC3` as the compound, how does the Potency read?
A: active: 1 µM

Q: With `CCN(CC)c1ccc(C=C2C(=O)OC3(CCCC3)OC2=O)cc1` as the compound, how does the Potency read?
A: inconclusive [inhibitor, partial curve]

Q: `O=C(/C=C/c1ccc(OCc2c(F)cccc2Cl)cc1)N1CCOCC1` was tested. Which Potency did it give?
A: inconclusive [inhibitor, single point]

Q: How did the Potency turn out when `CN1C(=O)C2(c3ccccc31)N(C)CC(c1ccccn1)C21SC(=S)N(Cc2ccco2)C1=O` (stereo unspecified) was run?
A: inconclusive [inhibitor, partial curve, poor fit]

Q: `Cc1noc(C)c1S(=O)(=O)N1CCN(C(c2ccccc2)c2ccc(Cl)cc2)CC1` (stereo unspecified) was tested. Which “activity change, negative = inhibition” value did it give?
A: inactive: -26.3% [at 46.1 µM]

Q: For `CC(C)(C)c1ccc(CSc2nnc(-c3ccccn3)n2Cc2ccco2)cc1`, which Potency is on record?
A: inconclusive [inhibitor, single point]

Q: With `Cn1c(=O)n(CCc2ccccc2)c(=O)c2c1nc1n2CCCN1Cc1ccccc1` as the compound, how does the Potency read?
A: inconclusive [inhibitor, partial curve]

Q: With `CCCCn1c(NC(=O)c2ccccc2)c(C#N)c2nc3ccccc3nc21` as the compound, how does the Potency read?
A: inconclusive [activator, partial curve]

Q: `Cn1ncc2c(Nc3ccc(-c4ccccc4)cc3)ncnc21` was tested. Which “activity change, negative = inhibition” value did it give?
A: inactive: -28.9% [at 46.1 µM]

Q: For `CN(C)S(=O)(=O)c1ccc(N2CCCC2)c(C(=O)NC(c2ccccc2)c2ccccc2)c1`, which “activity change, negative = inhibition” value is on record?
A: inactive: -9.53% [at 46.1 µM]

Q: `Cn1c(-c2cccc([N+](=O)[O-])c2)cnc1NCc1cccc([N+](=O)[O-])c1` was tested. Which “activity change, negative = inhibition” value did it give?
A: inactive: 39.6%

Q: How did the Potency turn out when `CCOC(=O)C1CCCN(C(=O)c2ccc(CS(=O)(=O)Cc3ccccc3C)o2)C1` (stereo unspecified) was run?
A: inconclusive [inhibitor, partial curve]

Q: With `CCOc1ccc(NC(=O)CN(C)c2nnnn2-c2ccccc2)cc1OCC` as the compound, how does the Potency read?
A: inconclusive [inhibitor, partial curve]

Q: `O=C(NC(NC(=S)Nc1ccc(Cl)c(Cl)c1)C(Cl)(Cl)Cl)c1ccco1` (stereo unspecified) was tested. Which Potency did it give?
A: inconclusive [inhibitor, single point]

Q: Which “activity change, negative = inhibition” value does the source give for `Cc1ccc(NS(=O)(=O)c2ccc(C(=O)N3CCN(c4ncccn4)CC3)cc2)cc1` here?
A: inactive: -5.95%

Q: Which “activity change, negative = inhibition” value does the source give for `O=c1c2ccccc2[nH]c(=S)n1CCC1=CCCCC1` here?
A: inactive: -7.84%

Q: How did the Potency turn out when `c1ccc(-c2nn3c(-c4ccccc4)nnc3s2)cc1` was run?
A: inconclusive [inhibitor, single point]

Q: With `C#CC(=O)N(c1cc(OC)ccc1OC)C(C(=O)NC1CCCC1)c1cccs1` (stereo unspecified) as the compound, how does the Potency read?
A: active: 10 µM

Q: Which Potency does the source give for `O=C(CCSc1nnc2scc(-c3ccccc3)n12)Nc1nc(-c2ccccc2)ns1` here?
A: inconclusive [inhibitor, partial curve]

Q: `COc1ccccc1NC(=O)CN1CCN(c2ccccc2F)CC1` was tested. Which Potency did it give?
A: inconclusive [inhibitor, full curve]

Q: `O=C(OCc1csc(-c2ccccc2)n1)c1ccccc1O` was tested. Which “activity change, negative = inhibition” value did it give?
A: inactive: -9.84%

Q: For `COc1cc(CNCCCN2CCOCC2)cc(Br)c1OCc1ccc(Cl)cc1`, which Potency is on record?
A: inconclusive [inhibitor, single point]

Q: `N#Cc1sc2nc(N3CCCCC3)c3c(c2c1N)CCCC3` was tested. Which Potency did it give?
A: inconclusive [inhibitor, single point]

Q: For `CCOC(=O)c1ccc2c(c1)nc(SCC(=O)N1CCCCC1)n2CC`, which Potency is on record?
A: inconclusive [inhibitor, partial curve, poor fit]

Q: For `CCCCOP(=O)(OCCCC)C1(NS(=O)(=O)c2ccccc2)C=CC(=O)c2ccccc21` (stereo unspecified), which Potency is on record?
A: inconclusive [inhibitor, single point]

Q: For `COc1ccc(C(=O)Nc2ccc3c(c2)Cc2ccccc2-3)cc1`, which “activity change, negative = inhibition” value is on record?
A: inactive: -19.9% [at 46.1 µM]

Q: With `CCOC(=O)C1=C(CSc2nc3ccccc3s2)NC(=O)NC1c1cc(C)ccc1C` (stereo unspecified) as the compound, how does the Potency read?
A: inconclusive [inhibitor, single point]

Q: How did the Potency turn out when `COc1ccc(C2Nc3ccccc3C(=O)N2c2ccc(F)cc2)cc1Cn1nnc2ccccc21` (stereo unspecified) was run?
A: inconclusive [inhibitor, single point]

Q: `O=C(C1CCCN(S(=O)(=O)c2ccc(Cl)cc2)C1)N(Cc1cccs1)C1CC1` (stereo unspecified) was tested. Which Potency did it give?
A: inconclusive [inhibitor, partial curve]

Q: With `COc1cc(Cl)c(C)cc1NC(=O)c1cccc(OC)c1OC` as the compound, how does the Potency read?
A: inconclusive [inhibitor, single point]

Q: `OC(c1ccccc1)C1CN(Cc2ccccc2)CCC1(O)c1ccccc1` (stereo unspecified) was tested. Which “activity change, negative = inhibition” value did it give?
A: inactive: -1.19% [at 46.1 µM]

Q: For `O=C(NC1CCCCC1)N1CCN(c2ncccn2)CC1`, which “activity change, negative = inhibition” value is on record?
A: inactive: -3.63% [at 46.1 µM]

Q: `CC1(C)CC(=O)C2=C(C1)Nc1ccccc1S2` was tested. Which Potency did it give?
A: inconclusive [inhibitor, single point]

Q: How did the “activity change, negative = inhibition” value turn out when `O=C(OCc1cccc([N+](=O)[O-])c1)c1cnccn1` was run?
A: inactive: 12.7%

Q: With `CCc1cccc(CC)c1NC(=S)NC(C)c1ccccc1` (stereo unspecified) as the compound, how does the “activity change, negative = inhibition” value read?
A: inactive: -26.9%

Q: Which Potency does the source give for `Cc1ccc(-c2csc(NC(=O)CSc3ncn(-c4ccccc4)n3)n2)cc1` here?
A: inconclusive [inhibitor, full curve, poor fit]

Q: `O=C(OCCN1C(=O)c2cccc3c(N4CCOCC4)ccc(c23)C1=O)c1ccc(Cl)cc1Cl` was tested. Which Potency did it give?
A: inconclusive [activator, partial curve]

From PubChem BioAssay AID1461 (National Center for Advancing Translational Sciences (NCATS), 2008)
